# The supplement of paper PMC3334620
# Over roughly 33,000 sequences, “E-score (-0.5 to 0.5)” has its median near -0.011; the highest 2% begin near 0.28. The list shows a part of the results.
# Target: T1, Gcr1 (UniProt P07261)
# T1 sequence: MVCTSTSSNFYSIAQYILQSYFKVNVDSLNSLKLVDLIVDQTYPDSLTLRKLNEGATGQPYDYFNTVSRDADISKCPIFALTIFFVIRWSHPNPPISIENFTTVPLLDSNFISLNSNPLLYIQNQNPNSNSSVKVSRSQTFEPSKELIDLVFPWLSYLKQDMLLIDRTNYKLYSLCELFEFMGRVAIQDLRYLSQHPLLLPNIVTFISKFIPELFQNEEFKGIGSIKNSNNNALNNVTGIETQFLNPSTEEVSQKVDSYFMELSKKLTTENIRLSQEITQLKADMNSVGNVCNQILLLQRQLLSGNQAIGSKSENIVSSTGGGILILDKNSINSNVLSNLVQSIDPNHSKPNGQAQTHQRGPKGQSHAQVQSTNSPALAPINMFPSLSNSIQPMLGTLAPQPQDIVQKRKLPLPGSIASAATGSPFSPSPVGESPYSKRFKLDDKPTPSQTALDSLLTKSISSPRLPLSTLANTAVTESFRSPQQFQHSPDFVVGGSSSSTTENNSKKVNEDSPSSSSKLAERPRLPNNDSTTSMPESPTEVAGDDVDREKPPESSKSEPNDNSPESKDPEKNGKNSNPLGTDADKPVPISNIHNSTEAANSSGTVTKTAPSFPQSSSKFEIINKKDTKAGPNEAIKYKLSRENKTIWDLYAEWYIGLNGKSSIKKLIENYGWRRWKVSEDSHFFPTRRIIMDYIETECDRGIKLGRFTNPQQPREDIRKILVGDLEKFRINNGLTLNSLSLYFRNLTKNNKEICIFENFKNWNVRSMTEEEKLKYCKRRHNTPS
# Assay: PBM E-score (8-mer binding enrichment) (E-score (-0.5 to 0.5)); higher = stronger / more preferred TF binding; most listed sequences are background and not binding sites
# Conditions: protein concentration: 100 nM; construct: GST-full length
# In short: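 Each ungapped eight-base word and its reverse complement, pooled, received an E-score from the Universal PBM Analysis Suite. Underlying scans, normalised with masliner, recorded fluorescent anti-GST bound to GST-tagged yeast transcription factors. These were applied at about 100-200 nM to universal all-10-mer Agilent arrays double-stranded by primer extension.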
row,Sequence,PBM E-score
1,AAAAATTT,-0.0275
2,ATGAACAC,0.0906
3,GTGAAGGA,-0.0433
4,CAAACCGA,-0.283
5,CACAGCCC,-0.232
6,ACTTCAAG,-0.0164
7,ACTGTCTA,-0.076
8,ACGTATGG,0.0374
9,GAGCGAGC,0.0568
10,AGGGCAAG,-0.102
11,ATACGATG,0.251
12,GCTTCGCA,0.181
13,AACAGGGG,-0.0549
14,AGCTTATC,-0.129
15,CGAGTGCA,-0.147
16,CGGCTGAG,0.0279
17,CTCCCGAG,0.00855
18,CACTTCTC,0.0143
19,ATTGCGAC,0.00666
20,CCTTACTC,-0.105
21,GCGGTGGA,0.0209
22,AGGCGGAT,-0.0646
23,CATAGCAA,0.0701
24,GGTGAGCA,-0.0456

row,Sequence,PBM E-score
1,GCATGTAC,-0.129
2,CTCGTAAG,-0.00585
3,CGAAGTAG,-0.0634
4,AAGTCCTG,-0.124
5,TAAGGTGA,0.0486
6,ACGCAGGC,-0.112
7,TGTTAAAA,0.0554
8,CCTGAAGC,-0.0642
9,AAAAAGGA,0.23
10,CTTTACGA,0.0372
11,CGGTACCA,0.0217
12,ATATTAAA,0.231
13,GAGGCCTC,-0.0204
14,ACAACGAC,0.167
15,ATTAATAC,0.236
16,CTCAGGTA,0.0682
17,ACGGCTCC,0.0972
18,CAGTAAAC,0.00833
19,ACGTTAGC,-0.219
20,ATGTACTG,-0.0239
21,CCTAGGCA,-0.189
22,AAAACTAT,0.00895
23,CAAGACAA,-0.0716
24,CTAGATAC,0.19

row,Sequence,PBM E-score
1,AATCGGAG,-0.0733
2,ACCTGGAC,-0.133
3,AGTAAAGA,-0.222
4,AATTTATC,0.0765
5,CTACAAAA,0.161
6,GCAGCTGA,0.336
7,AATCTTTG,0.157
8,TTGTACAA,0.081
9,AGGTAAAA,-0.0831
10,GAACACCC,0.0381
11,GCGACAGA,-0.108
12,AGCCACCG,0.0874
13,CTAGGTCC,-0.115
14,GGGTGCCA,0.414
15,TGCTCCCA,-0.0935
16,GCTCTCAA,0.14
17,AGCCAAGC,-0.0873
18,ATAGCAGA,0.00534
19,AAGCCGCA,0.266
20,ATGGTTTG,-0.0011
21,GAAGTCGA,-0.0123
22,AACTGTTG,-0.0169
23,GATTCCCC,0.289
24,CAAAACAG,0.152

row,Sequence,PBM E-score
1,CTGGTACA,0.154
2,GGGGACTA,-0.245
3,GAAAGGCC,-0.189
4,GGGAACCA,0.314
5,CTTGCTCA,-0.0829
6,ACATACAT,0.0989
7,AATATGGG,0.0736
8,AGAGCATA,0.0496
9,CGCAGCAC,-0.0714
10,CGTGGAAA,0.0989
11,ACAGCAAA,0.0114
12,ACACCCGG,0.00389
13,AGTTGCAT,-0.112
14,ACATTTCA,0.0812
15,AATCCCGA,0.217
16,ATAATGCA,-0.0183
17,ATAGTTCA,0.0266
18,GCCGGAAC,0.247
19,CGTCTGCC,-0.0726
20,GCTCGGAC,-0.265
21,ATTCTTGC,0.0176
22,AACTACGC,-0.103
